Measured values published in PubChem BioAssay (NCATS).
Several values for one entry are separate records, joined by “and”; a condition that tells them apart may be missing. Equal entries are not always repeated. The inconclusive results got no clear call from the source; some entries with a clear call stand among them for comparison. A potency beside an inconclusive call is a rough fit, not a confirmed value. Activity calls are given as the source filed them. Calls come from the whole dose curve; as a rule, active = well fitted curve in the direction sought with a large enough effect; inconclusive = small, poorly fitted or top-dose-only effect, or another doubt; inactive = no such curve, though single readings can be large; an effect the other way counts as inactive or inconclusive.

Key:
KB-3-1 = experiment: Cytotoxic Profiling of Annotated Libraries Using Quantitative High-Throughput Screening (AID 1296008); conditions: Five cell lines viability, CellTiter-Glo ATP luminescence, 48-72 h; max response: stronger effect = lower value; note: nearly all actives have a fitted effect of over 60% in size
In short: (§1)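 Cells exposed to compounds for 48 or 72 hr at 37 degrees Celsius. Viability read as ATP-coupled luminescence with CellTiter-Glo after 10 min at room temperature.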

MCC-26 = experiment: qHTS assay to identify novel small-molecules to repurpose for Merkel cell carcinoma treatment (AID 1296009); conditions: MCC and control cell lines, CellTiter-Glo viability, 72 h; activity change, negative = cytotoxicity: at 46 µM (top of the series); note: nearly all actives have a fitted effect of over 60% in size
In short: (§2)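 Cells were incubated with compound for 72 hr at 37 degree celsius before CellTiter-Glo addition. Luminescence was normalized with no-cell wells as full cytotoxicity and DMSO as baseline.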

MKL-1 = experiment: as above; conditions: MCC and control cell lines, CellTiter-Glo viability, 72 h; series mostly up to 46 µM
In short: as §2

WaGa = experiment: as above; conditions: MCC and control cell lines, CellTiter-Glo viability, 72 h; series mostly up to 46 µM
In short: as §2

MKL-2 = experiment: as above; conditions: MCC and control cell lines, CellTiter-Glo viability, 72 h; activity change, negative = cytotoxicity: at 46 µM (top of the series)
In short: as §2

CAOV3 = experiment: Primary qHTS to identify gynecologic anti-cancer compounds using libraries of approved drugs and bioactive compounds (AID 1345084); conditions: Gynecologic cancer cell panel viability, ATPlite luminescence, 48 h; series mostly up to 57.5 µM; note: nearly all actives have a fitted effect of over 55% in size
In short: (§3)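 Cells, 1,000 per well, were allowed to settle for 16 h at 37 C before compound addition. Five concentrations were tested for 48 h, and viability was read by ATPlite luminescence after 15 min at room temperature.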

CASKI = experiment: as above; conditions: Gynecologic cancer cell panel viability, ATPlite luminescence, 48 h; series mostly up to 57.5 µM
In short: as §3

JEG-3 = experiment: as above; conditions: Gynecologic cancer cell panel viability, ATPlite luminescence, 48 h; series mostly up to 57.5 µM
In short: as §3

PA-1 = experiment: as above; conditions: Gynecologic cancer cell panel viability, ATPlite luminescence, 48 h; series mostly up to 57.5 µM
In short: as §3

SKOV3 = experiment: as above; conditions: Gynecologic cancer cell panel viability, ATPlite luminescence, 48 h; series mostly up to 57.5 µM
In short: as §3

HaCat = experiment: Cytotoxic Profiling of Annotated Libraries Using Quantitative High-Throughput Screening (AID 1296008); conditions: Five cell lines viability, CellTiter-Glo ATP luminescence, 48-72 h; max response: stronger effect = lower value; note: nearly all actives have a fitted effect of over 60% in size
In short: as §1

C33A = experiment: Primary qHTS to identify gynecologic anti-cancer compounds using libraries of approved drugs and bioactive compounds (AID 1345084); conditions: Gynecologic cancer cell panel viability, ATPlite luminescence, 48 h; series mostly up to 57.5 µM; note: nearly all actives have a fitted effect of over 55% in size
In short: as §3

Es-2 = experiment: as above; conditions: Gynecologic cancer cell panel viability, ATPlite luminescence, 48 h; series mostly up to 57.5 µM
In short: as §3

HeLa = experiment: as above; conditions: Gynecologic cancer cell panel viability, ATPlite luminescence, 48 h; series mostly up to 57.5 µM
In short: as §3

Hek293T = experiment: as above; conditions: Gynecologic cancer cell panel viability, ATPlite luminescence, 48 h, control line for the selectivity index; series mostly up to 57.5 µM
In short: as §3

OV90 = experiment: as above; conditions: Gynecologic cancer cell panel viability, ATPlite luminescence, 48 h; series mostly up to 57.5 µM
In short: as §3

NIH3T3 = experiment: Cytotoxic Profiling of Annotated Libraries Using Quantitative High-Throughput Screening (AID 1296008); conditions: Five cell lines viability, CellTiter-Glo ATP luminescence, 48-72 h; max response: stronger effect = lower value; note: nearly all actives have a fitted effect of over 60% in size
In short: as §1

MCC-13 = experiment: qHTS assay to identify novel small-molecules to repurpose for Merkel cell carcinoma treatment (AID 1296009); conditions: MCC and control cell lines, CellTiter-Glo viability, 72 h; series mostly up to 46 µM; note: nearly all actives have a fitted effect of over 60% in size
In short: as §2

UISO = experiment: as above; conditions: MCC and control cell lines, CellTiter-Glo viability, 72 h; series mostly up to 46 µM
In short: as §2
% is set by controls: 0 for no effect and ±100 for the full control effect; potency is the fitted concentration of half-maximal effect; tags give direction and shape of the fitted curve.

CO[C@H]1C[C@@H]2CC[C@@H](C)[C@@](O)(O2)C(=O)C(=O)N2CCCC[C@@H]2C(=O)O[C@H]([C@H](C)C[C@@H]2CC[C@H](OCCO)[C@H](OC)C2)CC(=O)[C@H](C)C=C(C)[C@@H](O)[C@@H](OC)C(=O)[C@H](C)C[C@H](C)C=CC=CC=C1C
inconclusive: Potency (KB-3-1) 1.18 µM [inhibitor, full curve] | Potency (MCC-26) 7.43 µM [inhibitor, full curve] | Potency (MKL-1) 16.6 µM [inhibitor, partial curve] | Potency (WaGa) 5.26 µM [inhibitor, partial curve]

CC(=O)SCC(CC(=O)c1ccc(C)cc1)C(=O)O (stereo not drawn)
inactive: outcome (KB-3-1) | Potency (MKL-2) | Potency (CAOV3) | Potency (JEG-3)
inconclusive: Potency (CASKI) 1.12 µM [cytotoxic, single point] | Potency (PA-1) 14.1 µM [rising, partial curve, poor fit] | Potency (SKOV3) 20 µM [rising, single point]

Oc1ccc(/C=C/c2cc(O)cc(O)c2)cc1
active: Potency (Es-2) 25.1 µM
inconclusive: Potency (HaCat) 33.5 µM [inhibitor, single point] | Potency (MKL-2) 16.8 µM [inhibitor, single point] | Potency (WaGa) 16.8 µM [inhibitor, single point] | Potency (C33A) 14.1 µM [cytotoxic, partial curve, poor fit] | Potency (CAOV3) 39.8 µM [cytotoxic, single point] | Potency (CASKI) 35.5 µM [cytotoxic, single point] | Potency (HeLa) 15.8 µM [cytotoxic, partial curve] | Potency (Hek293T) 39.8 µM [cytotoxic, single point] | Potency (JEG-3) 31.6 µM [cytotoxic, partial curve, poor fit] | Potency (OV90) 31.6 µM [cytotoxic, single point] | Potency (PA-1) 39.8 µM [cytotoxic, single point] | Potency (SKOV3) 20 µM [cytotoxic, partial curve, poor fit]

Oc1ccc(C2CCN(c3ccnc4ccccc34)CC2)cc1O
inconclusive: Potency (KB-3-1) 11.8 µM [inhibitor, full curve, poor fit] | Potency (MKL-1) 23.5 µM [inhibitor, partial curve] | Potency (MKL-2) 20.9 µM [inhibitor, single point] | Potency (WaGa) 18.7 µM [inhibitor, single point]

O=c1cc(-c2ccccc2)oc2cc(O)cc(O)c12
inconclusive: Potency (KB-3-1) 13.2 µM [inhibitor, partial curve, poor fit] | Potency (NIH3T3) 29.6 µM [inhibitor, single point]

COc1ccc(/C=C/C(=O)Nc2ccccc2C(=O)O)cc1OC
inconclusive: Potency (HaCat) 0.13 µM [inhibitor, full curve, poor fit] | Potency (CAOV3) 25.1 µM [cytotoxic, single point] | Potency (JEG-3) 31.6 µM [cytotoxic, single point] | Potency (OV90) 35.5 µM [cytotoxic, single point] | Potency (SKOV3) 39.8 µM [cytotoxic, single point]

CCCSc1ccc2nc(NC(=O)OC)[nH]c2c1
inconclusive: Potency (KB-3-1) 0.623 µM [inhibitor, full curve] | Potency (MCC-26) 1.88 µM [inhibitor, full curve] | Potency (MKL-1) 1.06 µM [inhibitor, full curve] | Potency (MKL-2) 0.841 µM [inhibitor, full curve, poor fit] | Potency (UISO) 0.473 µM [inhibitor, full curve] | Potency (WaGa) 0.944 µM [inhibitor, full curve] | Potency (C33A) 12.6 µM [cytotoxic, partial curve, poor fit] | Potency (CAOV3) 1.58 µM [cytotoxic, full curve] | Potency (CASKI) 2.51 µM [cytotoxic, full curve] | Potency (JEG-3) 14.1 µM [cytotoxic, partial curve, poor fit] | Potency (OV90) 15.8 µM [cytotoxic, partial curve, poor fit]
active: Potency (MCC-13) 1.68 µM | Potency (Es-2) 3.55 µM | Potency (Hek293T) 0.891 µM | Potency (PA-1) 1.58 µM

O=c1cc(-c2ccccc2)oc2cc(O)c(O)c(O)c12
inactive: max response (HaCat) 1.36%
inconclusive: Potency (MKL-2) 37.2 µM [inhibitor, single point] | Potency (WaGa) 16.6 µM [inhibitor, partial curve]

CC(C)(C)c1ccc(C(=O)CCCN2CCC(OC(c3ccccc3)c3ccccc3)CC2)cc1
inactive: max response (KB-3-1) -0.417% | Potency (C33A)
active: Potency (WaGa) 15 µM | Potency (CAOV3) 28.2 µM
inconclusive: Potency (NIH3T3) 33.5 µM [inhibitor, single point] | Potency (MCC-13) 21.1 µM [inhibitor, single point] | Potency (MCC-26) 29.9 µM [inhibitor, single point] | Potency (UISO) 23.7 µM [inhibitor, single point] | Potency (Hek293T) 31.6 µM [cytotoxic, single point] | Potency (OV90) 39.8 µM [cytotoxic, single point] | Potency (PA-1) 10 µM [cytotoxic, partial curve]

O=C1NC(=O)C(=Cc2ccc(-c3ccc(F)cc3O)o2)S1
inconclusive: Potency (KB-3-1) 20.9 µM [inhibitor, partial curve] | Potency (MKL-2) 9.35 µM [inhibitor, full curve] | Potency (WaGa) 6.62 µM [inhibitor, partial curve]

CCCCCCCCCCCCOCCOCCOCCOCCOCCOCCOCCOCCOCCO
inconclusive: Potency (KB-3-1) 29.1 µM [inhibitor, single point] | Potency (MKL-1) 23.7 µM [inhibitor, single point] | Potency (MKL-2) 11.9 µM [inhibitor, partial curve] | Potency (UISO) 10.6 µM [inhibitor, partial curve] | Potency (C33A) 22.4 µM [cytotoxic, partial curve, poor fit] | Potency (CASKI) 39.8 µM [cytotoxic, single point] | Potency (Es-2) 17.8 µM [cytotoxic, single point] | Potency (HeLa) 0.794 µM [cytotoxic, single point] | Potency (Hek293T) 20 µM [cytotoxic, partial curve, poor fit] | Potency (PA-1) 31.6 µM [cytotoxic, single point] | Potency (SKOV3) 22.4 µM [cytotoxic, partial curve, poor fit]
active: Potency (WaGa) 21.1 µM | Potency (OV90) 28.2 µM

CCCCc1ccc2nc(NC(=O)OC)[nH]c2c1
inconclusive: Potency (KB-3-1) 0.0623 µM [inhibitor, full curve] | Potency (NIH3T3) 0.168 µM [inhibitor, full curve] | Potency (MCC-26) 209 nM [inhibitor, full curve] and 119 nM [inhibitor, full curve] | Potency (MKL-1) 33.2 nM [inhibitor, full curve] and 21.1 nM [inhibitor, full curve, poor fit] | Potency (MKL-2) 372 nM [inhibitor, full curve] and 18.8 nM [inhibitor, full curve, poor fit] | Potency (UISO) 52.6 nM [inhibitor, full curve] and 59.6 nM [inhibitor, full curve] | Potency (WaGa) 26.4 nM [inhibitor, full curve] and 26.6 nM [inhibitor, full curve] | Potency (CASKI) 0.282 µM [cytotoxic, full curve, poor fit] | Potency (Hek293T) 0.316 µM [cytotoxic, full curve] | Potency (JEG-3) 1.12 µM [cytotoxic, full curve, poor fit] | Potency (SKOV3) 0.141 µM [cytotoxic, full curve, poor fit]
active: Potency (C33A) 0.794 µM | Potency (Es-2) 0.562 µM | Potency (OV90) 1.58 µM

COC(=O)C1=C(C)NC(C)=C(C(=O)OCC(C)C)C1c1ccccc1[N+](=O)[O-] (stereo not drawn)
active: Potency (MKL-2) 5.96 µM | Potency (UISO) 23.7 µM | Potency (WaGa) 21.1 µM
inconclusive: Potency (KB-3-1) 29.1 µM [inhibitor, single point] | Potency (MCC-13) 16.8 µM [inhibitor, single point] | Potency (MCC-26) 21.1 µM [inhibitor, single point] | Potency (SKOV3) 39.8 µM [cytotoxic, single point]

Cc1ccc(C(=O)Nc2cccc(C(F)(F)F)c2)cc1Nc1nc(-c2cccnc2)nc2c1cnn2C
inconclusive: Potency (HaCat) 33.2 µM [inhibitor, single point] | Potency (UISO) 9.35 µM [inhibitor, full curve, poor fit]

Cc1ccc(C)c(OCCCC(C)(C)C(=O)O)c1
inconclusive: Potency (MKL-1) 37.2 µM [inhibitor, single point] | Potency (MKL-2) 37.2 µM [inhibitor, single point] | Potency (WaGa) 37.2 µM [inhibitor, single point]
inactive: max response (NIH3T3) -1.31% and 0.244% | Potency (UISO) | Potency (HeLa) | Potency (JEG-3)

C#CC1(O)CC[C@H]2[C@@H]3CCC4=CCCC[C@@H]4[C@H]3CC[C@@]21C (stereo partly drawn)
inactive: Potency (JEG-3)
inconclusive: Potency (MCC-13) 23.7 µM [inhibitor, single point] | Potency (MKL-1) 21.1 µM [inhibitor, single point] | Potency (MKL-2) 33.5 µM [inhibitor, single point] | Potency (UISO) 26.6 µM [inhibitor, single point] | Potency (WaGa) 23.7 µM [inhibitor, single point] | Potency (PA-1) 22.4 µM [cytotoxic, single point] | Potency (SKOV3) 39.8 µM [cytotoxic, single point]
